Measurements published in PubChem BioAssay (Tox21).
Where “and” joins values, the source holds several entries; their conditions need not be identical. Equal entries are not always repeated. For some assays here: This list holds what a sample rich in hits left over. Results filed as inconclusive are left out. The list shows a part of the results, in another mix than the full data. Some structures have more than one record in an assay (separate samples or runs), and their calls can disagree. Calls of active or inactive are those of the source. Unless noted, calls come from the whole dose curve; as a rule, active = well fitted curve in the direction sought with a large enough effect in the repeat runs; inconclusive = weak or mixed curves; inactive = no such curve, though single readings can be large; an effect the other way counts as inactive or inconclusive.

Key:
[1] = qHTS assay to identify small molecule antagonists of the estrogen receptor alpha (ER-alpha) signaling pathway using the BG1 cell line - cell viability counter screen (AID 743081); settings: BG1Luc4E2 viability, CellTiter-Fluor, 22 h;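 note: compound given together with 17beta-estradiol as the ER stimulus; potency is the fitted concentration of half-maximal effect; nearly all actives have a fitted effect of over 45% in size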
[2] = qHTS assay to identify aromatase inhibitors - cell viability counter screen (AID 743084); settings: MCF-7 aro ERE viability, CellTiter-Fluor, 24 h;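 note: cells stimulated with testosterone during compound exposure; potency is the fitted concentration of half-maximal effect; nearly all actives have a fitted effect of over 55% in size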
[3] = qHTS assay to identify small molecule agonists of the NFkB signaling pathway - cell viability counter screen (AID 1159515; calls by dose curve; note: nearly all actives have a fitted effect of over 55% in size; note: potency is the fitted concentration of half-maximal effect); settings: NFkB-bla ME-180 viability, CellTiter-Glo luminescence, 5 h; series mostly up to 61 µM
Method in brief: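 Counter screen run alongside the NFkB-bla agonist assay: ME-180 reporter cells exposed to compounds for 5 hr, then lysed with CellTiter-Glo in the same wells. Luminescence, read after 30 min, reflects viable cells.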

[4] = qHTS assay for small molecule activators of the heat shock response signaling pathway - cell viability counter screen (AID 743209); settings: HSE-bla HeLa viability, CellTiter-Glo luminescence, 5 h; note: potency is the fitted concentration of half-maximal effect; nearly all actives have a fitted effect of over 50% in size
Method in brief: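 To flag cytotoxic compounds, HSE-bla HeLa cells plated at 1500 cells/well were dosed for 5 h at 37 C, followed by the reporter FRET read and then CellTiter-Glo, with luminescence recorded 30 min after reagent addition.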

[5] = qHTS assay to identify small molecule agonists of the peroxisome proliferator-activated receptor delta (PPARd) signaling pathway - cell viability counter screen (AID 743211); settings: PPARd-bla HEK293H viability, CellTiter-Glo luminescence, 17 h; note: potency is the fitted concentration of half-maximal effect; nearly all actives have a fitted effect of over 55% in size
Method in brief: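 Following 5 h plating at 37 C and 5% CO2, PPARd UAS-bla HEK293H cells took up test compounds for 17 h. Viability was quantified by luminescence 30 min after CellTiter-Glo addition at room temperature.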

[6] = qHTS assay to identify small molecule antagonists of the farnesoid-X-receptor (FXR) signaling pathway - cell viability counter screen (AID 743221; active = well fitted cell-killing curve with a large enough effect in the repeat runs, not every such curve was filed as active; note: % is set by controls: 0 for no effect and ±100 for the full control effect; nearly all actives have a fitted effect of over 50% in size); settings: FXR-bla HEK293T viability, CellTiter-Glo luminescence, 16 h; at 81.1 µM (top of the series) unless noted
Method in brief: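 Compound effects on cell number were measured as CellTiter-Glo luminescence in HEK 293T cells expressing FXR-UAS-bla, after 16 h at 37 C with 50 uM CDCA (final).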

[7] = qHTS assay to identify small molecule antagonists of the estrogen related receptor (ERR) signaling pathway from Tox21 library - cell viability counter screen (AID 1224834); settings: ERR reporter cells viability, CellTiter-Fluor, 17.5 h; note: potency is the fitted concentration of half-maximal effect; nearly all actives have a fitted effect of over 30% in size
Method in brief: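 Seeded ERR cells were rested 6 h at 37 C/5% CO2 before compounds, positive and negative controls or DMSO were added. Incubation continued for 17.5 h, and viability was then quantified by CellTiter-Fluor fluorescence.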

[8] = qHTS assay to identify small molecule antagonists of the estrogen receptor alpha (ER-alpha) signaling pathway using the BG1 cell line in the presence of 0.1 nM 17-beta-estradiol - cell viability counter screen (AID 1259241); settings: VM7Luc4E2 (BG1) viability, CellTiter-Fluor protease, 22 h, 0.1 nM estradiol agonist added; series mostly up to 92.4 µM; note: nearly all actives have a fitted effect of over 40% in size; note: potency is the fitted concentration of half-maximal effect; for activity change, negative = cytotoxicity: % is set by controls: 0 for no effect and ±100 for the full control effect
Method in brief: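 Measures cytotoxicity alongside the ER-alpha antagonist readout: VM7Luc4E2 cells, charcoal-stripped serum, 0.1 nM 17beta-estradiol final, 22 hr compound incubation at 37C, CellTiter-Fluor fluorescence.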

[9] = qHTS assay to identify small molecule agonists of the estrogen receptor alpha (ER-alpha) signaling pathway in the presence of an antagonist - cell viability counter screen (AID 1259386); settings: VM7Luc4E2 viability, CellTiter-Fluor fluorescence, 22 h;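 note: potency is the fitted concentration of half-maximal effect; cells exposed to compounds for 22 h at 37 °C before the viability read; nearly all actives have a fitted effect of over 30% in size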
Method in brief: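 The test measures whether compounds kill ER-alpha reporter cells (VM7Luc4E2) under antagonist co-treatment (ICI-182,780, 10.0nM). Fluorescence from CellTiter-Fluor is read after a 22hr exposure.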

[10] = qHTS assay to identify small molecule antagonists of the androgen receptor (AR) signaling pathway using the MDA cell line in the presence of 0.5 nM R1881 - cell viability counter screen (AID 1259242); settings: MDA-kb2 viability, CellTiter-Fluor protease fluorescence, 16 h; note: potency is the fitted concentration of half-maximal effect; nearly all actives have a fitted effect of over 45% in size
Method in brief: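 Concentration-response screen of compounds for toxicity in MDA-kb2 reporter cells: 16 hr at 37C with 0.5 nM R1881, endpoint live-cell protease fluorescence measured in the reporter wells.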

[11] = biological target: Androgen receptor (Homo sapiens) (UniProt P10275); assay: qHTS assay to identify small molecule antagonists of the androgen receptor (AR) signaling pathway using the MDA cell line in the presence of 0.5 nM R1881 (AID 1259243); settings: MDA-kb2 MMTV-luciferase, R1881 0.5 nM, 16 h; note: potency is the fitted concentration of half-maximal effect; nearly all actives have a fitted effect of over 50% in size
Method in brief: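 With R1881 held at 0.5 nM (final), compound effects on MMTV-luciferase expression in MDA-kb2 cells were scored by luminescence after a 16 hr, 37C incubation.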

[12] = qHTS assay to identify small molecule agonists of the androgen receptor (AR) signaling pathway in the presence of an antagonist - cell viability counter screen (AID 1259379); settings: MDA-kb2 viability, CellTiter-Fluor, 16 h; note: potency is the fitted concentration of half-maximal effect; nearly all actives have a fitted effect of over 25% in size
Method in brief: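 MDA-kb2 viability measured by CellTiter-Fluor fluorescence in the same wells as the luciferase signal; nilutamide 3.0uM final; 15-point compound titration; 16 hr at 37C.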

[13] = qHTS assay to identify small molecule agonists of the estrogen receptor beta (ER-beta) signaling pathway - cell viability counter screen (AID 1259380); settings: ER-beta-bla HEK293T viability, CellTiter-Glo luminescence, 16 h; note: potency is the fitted concentration of half-maximal effect; nearly all actives have a fitted effect of over 30% in size
Method in brief: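 Measured: luminescence from CellTiter-Glo after 30 min at room temperature, added to wells already read for the LiveBLAzer FRET reporter (2 hr substrate); ER-beta-UAS-bla HEK293T cells had 16 hr compound treatment at 37C, 5% CO2.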

Sequence of UniProt P10275 (P10275 whole entry, looked up): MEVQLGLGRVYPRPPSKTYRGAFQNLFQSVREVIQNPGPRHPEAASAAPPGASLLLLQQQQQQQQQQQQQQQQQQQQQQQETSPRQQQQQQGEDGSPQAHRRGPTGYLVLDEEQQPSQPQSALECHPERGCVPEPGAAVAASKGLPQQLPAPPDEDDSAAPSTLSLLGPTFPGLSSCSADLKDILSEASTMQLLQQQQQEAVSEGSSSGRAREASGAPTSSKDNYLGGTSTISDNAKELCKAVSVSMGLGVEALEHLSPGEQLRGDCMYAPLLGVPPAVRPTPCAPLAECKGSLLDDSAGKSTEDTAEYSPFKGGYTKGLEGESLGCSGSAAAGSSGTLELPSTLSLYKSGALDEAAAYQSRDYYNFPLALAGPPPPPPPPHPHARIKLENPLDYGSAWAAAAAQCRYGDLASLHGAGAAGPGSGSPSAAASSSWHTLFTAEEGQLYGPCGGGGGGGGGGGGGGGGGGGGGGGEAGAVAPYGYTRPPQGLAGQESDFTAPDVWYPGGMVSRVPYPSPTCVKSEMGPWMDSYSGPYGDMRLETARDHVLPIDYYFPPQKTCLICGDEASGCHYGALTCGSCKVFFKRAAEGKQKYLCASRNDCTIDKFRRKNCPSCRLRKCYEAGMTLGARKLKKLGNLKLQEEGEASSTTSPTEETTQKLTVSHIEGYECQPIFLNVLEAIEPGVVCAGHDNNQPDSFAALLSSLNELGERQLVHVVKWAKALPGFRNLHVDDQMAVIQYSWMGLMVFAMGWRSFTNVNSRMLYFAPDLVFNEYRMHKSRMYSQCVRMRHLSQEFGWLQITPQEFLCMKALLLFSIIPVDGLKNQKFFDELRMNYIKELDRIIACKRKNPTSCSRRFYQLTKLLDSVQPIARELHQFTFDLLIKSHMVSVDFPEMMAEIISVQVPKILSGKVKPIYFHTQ

**Q.** Which Potency [1] does the source give for `CCC[CH2][Sn]([CH2]CCC)([CH2]CCC)[CH2]CCC` here?
**A.** Its Potency is active: 13.7 µM.

**Q.** Which results are given for `CCCCCCCCCC(CC)c1ccc(S(=O)(=O)O)cc1` (configuration not stated)?
**A.** Potency [2]: active: 30.6 µM; Potency [3]: inactive and active: 15.5 µM

**Q.** For `CCOP(=O)(O)OCC` (tested in a mixture with another compound), which Potency [4] is on record?
**A.** The Potency was active: 19.3 µM.

**Q.** For `C=CCC1=C(C)C(OC(=O)C2C(C=C(C)C)C2(C)C)CC1=O` (configuration not stated), which Potency [5] is on record?
**A.** The Potency was active: 23.2 µM.

**Q.** With `O=C(CCl)CCl` as the compound, how does the activity change, negative = cytotoxicity [6] read?
**A.** The activity change, negative = cytotoxicity was inactive: -5.07% [at 62.6 µM].

**Q.** Which activity change, negative = cytotoxicity [6] does the source give for `COCCOCCO` here?
**A.** The activity change, negative = cytotoxicity was inactive: -4.94%.

**Q.** With `Oc1ccc(Cl)cc1Cc1ccccc1` as the compound, how does the Potency [7] read?
**A.** Its Potency is active: 24.6 µM.

**Q.** Which Potency [7] does the source give for `CC(C)(C)CC(C)(C)c1ccc(O)cc1` here?
**A.** The Potency was active: 54.5 µM.

**Q.** Which Potency [8] does the source give for `O=[N+]([O-])c1cc([N+](=O)[O-])c2ccccc2c1` here?
**A.** Its Potency is “inactive”.

**Q.** Which Potency [8] does the source give for `Oc1cc(Cl)ccc1Oc1ccc(Cl)cc1Cl` here?
**A.** Its Potency is active: 62.6 µM.

**Q.** What about the Potency [9] of the same compound?
**A.** The Potency was active: 31.4 µM.

**Q.** With `C=CCC1=C(C)[C@@H](OC(=O)[C@@H]2[C@@H](C=C(C)C)C2(C)C)CC1=O` as the compound, how does the Potency [10] read?
**A.** Its Potency is active: 43.3 µM.

**Q.** Which Potency [11] does the source give for `CC(C)Oc1cc(-n2nc(C(C)(C)C)oc2=O)c(Cl)cc1Cl` here?
**A.** Its Potency is active: 67.6 µM.

**Q.** Which Potency [12] does the source give for `Nc1ccc(N=Nc2ccccc2)cc1` here?
**A.** The Potency was active: 27.3 µM.

**Q.** Which Potency [13] does the source give for `O=S(=O)(O)C(F)(F)C(F)(F)C(F)(F)C(F)(F)C(F)(F)C(F)(F)C(F)(F)C(F)(F)F` here?
**A.** Its Potency is active: 15.4 µM.

**Q.** For `O=S1OCC2C(CO1)C1(Cl)C(Cl)=C(Cl)C2(Cl)C1(Cl)Cl` (configuration not stated), which Potency [13] is on record?
**A.** Its Potency is active: 61.2 µM.
